Measured values: paper PMC4336329 (PLoS ONE, 2015)
About 14,000 (4.5%) of roughly 310,000 compounds showed an effect of 50% or more. Effects have a minus sign here. The list shows a part of the results.

Biological target: human ether-à-go-go-related gene (hERG) potassium channel (human, UniProt Q12809)
Assay: primary screen, population patch clamp on CHO cells stably expressing hERG
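Note: peak tail current of the secondary pulse compared with the same well before compound.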

human ether-à-go-go-related gene (hERG) potassium channel, sequence (Q12809 whole entry, looked up): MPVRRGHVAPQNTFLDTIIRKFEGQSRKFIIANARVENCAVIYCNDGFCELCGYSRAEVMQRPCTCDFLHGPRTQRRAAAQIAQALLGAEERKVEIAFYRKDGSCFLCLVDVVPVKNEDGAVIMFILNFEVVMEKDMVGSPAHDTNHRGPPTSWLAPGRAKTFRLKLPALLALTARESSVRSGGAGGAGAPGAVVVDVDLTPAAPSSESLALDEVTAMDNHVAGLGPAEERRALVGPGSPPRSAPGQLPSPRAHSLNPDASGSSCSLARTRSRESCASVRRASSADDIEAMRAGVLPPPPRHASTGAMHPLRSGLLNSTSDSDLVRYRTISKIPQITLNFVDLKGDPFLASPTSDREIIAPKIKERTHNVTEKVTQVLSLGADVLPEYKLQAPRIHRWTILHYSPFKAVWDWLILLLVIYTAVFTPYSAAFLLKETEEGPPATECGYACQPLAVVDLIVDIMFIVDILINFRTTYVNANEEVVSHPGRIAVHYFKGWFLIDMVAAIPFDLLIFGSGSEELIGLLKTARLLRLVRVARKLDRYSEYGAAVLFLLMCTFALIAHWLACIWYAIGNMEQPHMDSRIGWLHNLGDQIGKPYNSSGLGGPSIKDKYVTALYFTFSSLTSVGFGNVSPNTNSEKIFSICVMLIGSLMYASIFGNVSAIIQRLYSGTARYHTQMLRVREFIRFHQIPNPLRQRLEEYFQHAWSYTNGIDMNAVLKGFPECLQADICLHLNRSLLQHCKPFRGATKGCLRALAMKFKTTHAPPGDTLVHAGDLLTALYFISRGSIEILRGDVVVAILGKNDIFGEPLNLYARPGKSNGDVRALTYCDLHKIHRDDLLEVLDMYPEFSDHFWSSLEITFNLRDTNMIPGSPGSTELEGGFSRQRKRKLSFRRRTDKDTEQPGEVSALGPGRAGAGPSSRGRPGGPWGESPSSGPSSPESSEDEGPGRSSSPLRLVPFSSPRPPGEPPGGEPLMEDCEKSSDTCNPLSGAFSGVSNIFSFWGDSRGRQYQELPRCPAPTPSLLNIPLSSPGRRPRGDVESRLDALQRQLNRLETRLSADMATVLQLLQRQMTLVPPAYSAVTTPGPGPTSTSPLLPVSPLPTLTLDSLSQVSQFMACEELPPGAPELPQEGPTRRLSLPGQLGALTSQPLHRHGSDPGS

SMILES | hERG current change (%, negative = inhibition) at 10uM
COC(=O)[C@@]1(Cc2ccc(F)cc2)[C@H]2c3cc(C(=O)N4CCCC4)n(CCc4c[nH]c5ccc(OC)cc45)c3C[C@H]2CN1C(=O)c1ccccc1 | 3.92%
COC(=O)c1c(NC(=O)CSc2nc(-c3ccco3)cc(C(F)(F)F)n2)sc2c1CCCC2 | 16.2%
O=c1sc2ccccc2n1Cc1ccccc1 | -12.7%
CC1=CC2=NC(=O)/C(=C/c3coc4ccccc4c3=O)C(=N)N2O1 | -6.79%
Cc1ccc(S(=O)(=O)NC(CC(=O)NCC2CCCO2)c2ccco2)cc1 (stereo not shown) | 24.9%
O=C1NC(=O)N(c2ccccc2)C(=O)/C1=C\c1ccc2c3c(cccc13)CC2 | -20.4%
COc1ccc(CC(=O)OCC(=O)NCCNC(=O)COC(=O)Cc2ccc(OC)cc2)cc1 | -9.61%
CN(CC1COc2ccccc2O1)C(=S)Nc1ccccc1F (stereo not shown) | -1.05%
Cc1nc(NCc2ccccn2)c2ccccc2n1.Cl | 1.45%
NC(=NCCc1c[nH]c2ccccc12)NC(=O)c1ccc(Cl)cc1 | -2.18%
COc1cccc(OCCc2c(C)n[nH]c2C)c1.Cl | 2.05%
O=C(CSc1nc(Nc2ccccc2)nc(N2CCOCC2)n1)NC1CCCCC1 | -3.3%
Cc1ccc(NC(=O)[C@H](NC(=O)[C@@H]2Cc3ccccc3CN2)c2ccccc2)cc1C | -37.9%
O=C(CNC(=O)c1ccccc1Br)N/N=C/c1ccccc1O | 16.1%
COc1cccc(CNC(=O)CSCC(=O)Nc2ccc(C)cc2)c1 | -14.2%
CCCN(c1ccccc1C(=O)O)S(=O)(=O)c1ccc2c(c1)n(C)c(=O)n2C | 19.8%
COc1ccc2c(c1)c(C(=O)CN1CCc3ccccc3C1)c(C)n2C | -10.6%
CCN1C(=O)C2(C(C#N)=C(N)Oc3n[nH]c(C(C)C)c32)c2ccccc21 (stereo not shown) | -10.4%
Oc1ccc(-c2n[nH]c(=S)n2-c2ccc3c(c2)OCCO3)cc1 | 13.9%
Cl.FC(F)(F)c1ccc2c(c1)N(CCCN1CCN(CCCl)CC1)c1ccccc1S2 | -8.34%
O=C(Nc1cccc(F)c1)N1CC=C(n2c(=O)[nH]c3ccccc32)CC1 | 7.78%
CCN(Cc1ccc2c(c1)OCCO2)C(=O)CSc1nc(C)nc2sc(C)c(C)c12 | -21.8%

SMILES | hERG current change (%, negative = inhibition) at 10uM
COc1ccc(/C=C/C(=O)c2ccc(O)cc2)cc1 | -0.228%
O=C(CSc1ccc(-c2ccccc2)nn1)N1CCN(c2ccccc2)CC1 | -6.59%
COc1ccc(NC(=O)CN2C(=O)/C(=C3\SC(=S)N(C4CCS(=O)(=O)C4)C3=O)c3ccccc32)cc1 (stereo not shown) | 13.8%
Cc1cc(-n2ccnc2)n2c(nc3ccccc32)c1C#N | 13.7%
CN(C)S(=O)(=O)Nc1cc(F)cc(F)c1 | 21.1%
COc1ccccc1OCc1ccc(C(=O)NCC(C)C)o1 | -21%
O=C(NC1CCCCC1)C(c1ccc2ncccc2c1)N(Cc1ccc2c(c1)OCO2)C(=O)c1cccs1 (stereo not shown) | -37.1%
COc1ccc(C(CNC(=O)C(C)c2ccc3cc(OC)ccc3c2)N(C)C)cc1 (stereo not shown) | -7.44%
CC(C)(C)c1ccc(C(=O)NCCC(=O)NCc2cccs2)cc1 | 16.3%
O=C(Cc1ccccc1)Oc1ccc([N+](=O)[O-])cc1 | 15.6%
CCOC(=O)C1=NNC(C(=O)c2ccc(C)cc2)C1c1ccc(OC)cc1 (stereo not shown) | -15.5%
Cc1cc(OCC(=O)NNC(=O)CCc2ccccc2)ccc1Br | 17.6%
CCCOC(=O)C1=C(C)NC2=C(C(=O)CCC2)C1c1cccc(OC)c1OC (stereo not shown) | 0.437%
CC(C)CN(C(=O)c1ccco1)C1CCS(=O)(=O)C1 (stereo not shown) | -3%
CCC(C)[C@H](NC(=O)NCc1ccccc1)C(=O)O (stereo partly shown) | 3.48%
O=S(=O)(c1cccc(-n2cnnn2)c1)N1CCOCC1 | -14.9%
C=CCNC(=O)CC12CC3CC(C1)CC(CC(=O)NCC=C)(C3)C2 | 19.4%
Cc1ccc(NC(=O)CN(C)C(=O)CCC(=O)N2CCOCC2)cc1 | 8.36%
CN(C)S(=O)(=O)c1ccc(N2CCCC2)c(C(=O)Nc2ccccc2)c1 | -23.5%
Cc1ccc(S(=O)(=O)N2CCC(C(=O)OCCOc3ccccc3)CC2)cc1C | -28.2%
CCN1C(=O)N[C@@H](c2ccccc2)[C@@H](C(=O)OC)[C@H]1C | 4.69%
